Experimental findings from PubChem BioAssay AID485344 (National Center for Advancing Translational Sciences (NCATS), 2010) are described below.

In all, about 340,000 compounds went through this assay and about 6,900 (2%) were called active. Cut-off read from the data, not from the text of the source: active = inhibition above about 30%; inactive = below that, where a call was filed. This is a selection; strong and weak results do not stand in their true shares. Entries without a call were filed so in the source.

UniProt P14416, sequence (P14416 whole entry, looked up): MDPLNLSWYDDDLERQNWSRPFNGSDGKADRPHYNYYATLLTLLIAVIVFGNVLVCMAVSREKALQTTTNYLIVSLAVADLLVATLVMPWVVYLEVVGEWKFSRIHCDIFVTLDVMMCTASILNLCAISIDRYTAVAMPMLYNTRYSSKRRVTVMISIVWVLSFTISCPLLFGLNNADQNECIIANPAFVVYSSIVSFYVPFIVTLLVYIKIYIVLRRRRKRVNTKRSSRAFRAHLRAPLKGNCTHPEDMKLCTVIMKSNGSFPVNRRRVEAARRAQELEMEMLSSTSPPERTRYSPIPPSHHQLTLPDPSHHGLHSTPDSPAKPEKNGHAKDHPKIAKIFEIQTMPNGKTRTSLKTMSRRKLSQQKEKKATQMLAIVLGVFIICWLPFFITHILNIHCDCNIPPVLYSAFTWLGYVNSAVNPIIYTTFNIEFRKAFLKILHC

This assay deals with D(2) dopamine receptor (Homo sapiens) (UniProt P14416). As to the kind of experiment: HTS Assay for Allosteric Antagonists of the Human D2 Dopamine Receptor: Primary Screen for Antagonists. Note: 0% is about no effect. The note with it: HEK293 TREx D2 cells, calcium flux, dopamine EC80; at 10 µM; stronger effect = higher value. The method, boiled down:
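Compounds are added to dye-loaded, induced HEK293 T-REx cells coupled to calcium release via D2; after a 3 min kinetic read an EC80 dopamine stimulus is given and fluorescence is recorded for 3 more min.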
As for `O=c1c2cnn(-c3ccc(F)cc3)c2ncn1Cc1ccc(F)cc1`, the inhibition is -8.17%.

As for `Cc1cccc(NC(=O)Cc2ccc(-n3c(C)nc4cccnc43)cc2)c1C`, the inhibition came to 7.71%.

In the case of `COc1ccc(Cl)cc1NC(=O)Cn1cc2c(n1)CCC(C)C2` (stereo unspecified), the inhibition was -0.708%.

For the molecule `Cc1cc(-c2ccc(S(=O)(=O)Nc3ccc(Br)c(C)c3)s2)on1`, the inhibition was found to be 3.79%.

As for `COc1ccc(CNC(=O)C2Cc3cc(S(=O)(=O)N4CCCCCC4)ccc3N2C(C)=O)cc1` (stereo unspecified), the inhibition was 12.5%.

For the molecule `COc1ccc(Nc2cc(C(=O)NCc3ccccc3)c3ccccc3n2)c(OC)c1`, the inhibition was determined as 2.41%.

In the case of `Cc1oc2ccc(O)c(CN3CCCC3)c2c1C(=O)Nc1cccc(Cl)c1C`, the inhibition was -8.34%.

On to `Cc1cccc(NC(=O)CSc2nc3c(oc4ccccc43)c(=O)n2-c2ccc(F)cc2)c1`, for which the inhibition is -0.567%.

With `COc1ccc2c(CNCCc3ccccc3)c(C(=O)O)n(Cc3cccc(F)c3)c2c1`, the inhibition amounted to 14.3%.

Turning to `COc1ccc(-c2noc(-c3cccc(OC)c3OC)n2)cc1`, the inhibition stood at 7.28%.

Consider `O=S(=O)(c1ccc2nc(N3CCN(c4ccccc4)CC3)ccc2c1)N1CCCCC1`, for which the inhibition was 16.6%.

As to `Cc1ccc(NC(=O)CC(C)S(=O)(=O)c2ccc3c(c2)NC(=O)CO3)cc1C` (stereo unspecified), the inhibition stood at 5.7%.

`CCOc1ccc(-c2cn3c(n2)sc2cc(C(=O)NC4CCCc5ccccc54)ccc23)cc1` (stereo unspecified): the inhibition is -3.75%.

Regarding `CSc1ncc(C(=O)Nc2ccc(C(C)=O)cc2)c(-c2ccccc2)n1`, the inhibition was found to be 4.03%.

Turning to `COc1ccc(NC(=O)c2cn3c4c(ccc(Cl)c4c2=O)OC(C)C3)cc1OC` (stereo unspecified), the inhibition is -0.191%.

As to `CCOc1ccc2nc(NC(=O)c3cc(=O)c4cc(C)cc(C)c4o3)sc2c1`, the inhibition is -7.02%.

On to `COc1ccc(N(Cc2cccs2)C(=O)COc2cc(C)c(Cl)c(C)c2)cc1`, for which the inhibition stood at 13.4%.

Take `CCOC(=O)c1ccc(NC(=O)CCc2c(C)nc3c(-c4ccc(F)cc4)c(C)nn3c2C)cc1`: the inhibition was 19.6%.

Consider `Cc1ccc(-c2onc(C)c2C)cc1S(=O)(=O)Nc1ccc(Cl)cn1`, for which the inhibition is 6.35%.

In the case of `COc1ccc(NC(=O)C2Cc3ccccc3N2C(=O)c2ccccc2)cc1OC` (stereo unspecified), the inhibition is -3.51%.

Turning to `Cc1ccccc1C(=O)Nc1ccc(C(=O)OCc2cc(=O)n3nc(C(C)C)sc3n2)cc1`, the inhibition is -9.5%.

Take `CCOc1ccc(NC(=O)N(C(C)C)C2CCN(C(C)=O)CC2)cc1`: the inhibition amounted to 25.1%.

In the case of `COc1ccc(C(=O)Oc2cc(-c3ccc4c(c3)OCO4)cc(=O)c3c(C)oc(C)c23)cc1`, the inhibition was -9.21%.

As for `O=C(CSc1ncc(CO)n1Cc1ccc(Cl)cc1)NCc1ccc(F)cc1`, the inhibition was -6.5%.

Turning to `COc1ccc(CNC(=O)c2cc3cccc4c3n2CC(C)S4)c(OC)c1` (stereo unspecified), the inhibition was -14.6%.

On to `Cc1cccc(NC(=O)CSc2nc(=O)n(Cc3ccccn3)c3c2CCC3)c1C`, for which the inhibition came out at 1.43%.

Consider `COc1ccc(S(=O)(=O)N2CCN(CC(=O)Nc3ccc(Cl)c(C(F)(F)F)c3)CC2)cc1`, for which the inhibition was 13.4%.

Take `Cc1ccc(Cl)cc1NC(=O)CSc1nc2c(c(=O)[nH]1)CN(Cc1ccccc1)CC2`: the inhibition amounted to 15.4%.

Consider `COC(=O)c1cc2oc(C)cc2n1CC(=O)Nc1cc(Cl)ccc1OC`, for which the inhibition is -5.8%.

Consider `CCNc1oc(-c2ccc(COc3ccc(Cl)cc3)o2)nc1C#N`, for which the inhibition came out at 4.92%.

Turning to `CCCCOc1ccc(CNC(=O)Cc2ccc(NC(=O)N3CCSc4ncccc43)cc2)cc1`, the inhibition was found to be 0.226%.

Consider `O=C(CSC1=Nc2ccccc2N=C(c2ccc(F)cc2)C1)NCc1ccccc1Cl`, for which the inhibition was -9.74%.

For the molecule `Cn1c(CN2CCCC2)nc2cc(NC(=O)COc3ccc(Cl)cc3)ccc21`, the inhibition is active: 41%.

`COCCn1c(=O)[nH]c2cc(C(=O)NCCN3CCN(c4ccccc4F)CC3)ccc2c1=O`: the inhibition was active: 96.4%.

Consider `Cc1nn(-c2ccc(N3CCOCC3)nn2)c(C)c1CCC(=O)NCc1ccccc1F`, for which the inhibition is 2.71%.

For the molecule `CCOc1ccc(CNC(=O)c2sc3ncnc(N(C)C4CCCCC4)c3c2C)cc1`, the inhibition is -24.1%.

For `NC(=O)c1ccccc1NC(=O)Cn1nc(Cc2cccnc2)c2ccccc2c1=O`, the inhibition was found to be 1.5%.

Take `COC(=O)c1cccc(Nc2nn3c(=O)c4cc5c(cc4nc3s2)OCO5)c1`: the inhibition is 1.04%.

On to `COc1ccc(-c2[nH]c3ccccc3c2SCCNC(=O)c2ccc(S(=O)(=O)N(C)C)cc2)cc1`, for which the inhibition amounted to 4.56%.

Regarding `COc1ccc(S(=O)(=O)NCC(c2ccc(N(C)C)cc2)N2CCOCC2)cc1` (stereo unspecified), the inhibition was -9.92%.

Turning to `Cc1ccc2[nH]c3c(=O)n(CC(=O)NC(C)C)ncc3c2c1`, the inhibition worked out at 3.51%.

Regarding `COc1ccc(CNC(=O)CSc2ncc(S(=O)(=O)c3ccc(Br)cc3)c(=O)[nH]2)cc1`, the inhibition turned out to be 5.73%.

On to `CC(C)N1CCc2nc(SCC(=O)Nc3cccc(F)c3)[nH]c(=O)c2C1`, for which the inhibition was -2.28%.

As for `COc1ccc(-c2nc3scc(CCNC(=O)c4cc(OC)cc(OC)c4)n3n2)cc1`, the inhibition is -0.987%.

For `O=C(O)CSCCc1ccccn1`, the inhibition is active: 52.8%.

As for `CCOc1ccc(C(=O)OCc2cc(=O)n3cc(C)sc3n2)cc1`, the inhibition was 6.95%.

As to `COc1ccc2c(c1)C=C(C(=O)NCc1cc(Br)ccc1OC)CO2`, the inhibition worked out at 0.0738%.

Regarding `CCCCCn1cc2c(c1-c1ccc(Cl)cc1)c(=O)n(C)c(=O)n2C`, the inhibition was -10.8%.

For the molecule `Cc1cccc(C(=O)Nc2ccc3oc(-c4ccncc4)nc3c2)c1`, the inhibition worked out at 2.22%.

On to `CCc1ccccc1NC(=O)c1sc(-n2nc(C)c(Cc3ccc4c(c3)OCO4)c2C)nc1C`, for which the inhibition worked out at 5.02%.

For the molecule `COc1ccccc1NC(=O)c1sc2ncn(Cc3ccccc3Cl)c(=O)c2c1C`, the inhibition was 0.78%.

`CCOC(=O)C1CCCN(S(=O)(=O)c2ccc3[nH]c(=O)oc3c2)C1` (stereo unspecified): the inhibition was -14.8%.

Take `COc1ccc(C)cc1-n1c(-c2ccc(C)cc2)cc2c1CC(C)(C)CC2=O`: the inhibition was -10.8%.

Consider `O=C(Cn1c2ncccc2c(=O)n1-c1ccccc1)Nc1ccc(Cl)cc1C(F)(F)F`, for which the inhibition was found to be 1.53%.

As to `COCc1cc(C)nc2sc3c(c12)NC(c1ccc(O)cc1)N(c1ccc(C)cc1)C3=O` (stereo unspecified), the inhibition is 19.1%.

As to `O=C(OCc1cccc(C(F)(F)F)c1)c1ccc(-c2nnn(Cc3ccc(F)cc3)n2)cc1`, the inhibition is -5.84%.

In the case of `Cc1nn(C(=O)c2ccccc2)c(C)c1S(=O)(=O)N1CCCCCC1`, the inhibition came out at 12.5%.

Regarding `CCn1c(=N)c(C(=O)NC2CCCC2)cc2c(=O)n3ccccc3nc21`, the inhibition is 10%.

As to `COc1ccc(-n2c(/C=C/c3c(C)[nH]c4ccccc34)nc3ccccc3c2=O)cc1`, the inhibition was 2.16%.

On to `COc1cccc(CNc2nccn(-c3ccc(OC)c(OC)c3)c2=O)c1`, for which the inhibition came to 4.25%.

For `Cc1nn(C)c2c1c(-c1ccccc1)cc(=O)n2Cc1ccc(Cl)cc1`, the inhibition was determined as 1.47%.

`COc1ccccc1C(=O)Nc1ccc(OCc2cc(=O)n3ccc(C)cc3n2)cc1`: the inhibition came to 3.53%.

Take `CCOc1ccc(S(=O)(=O)N2CCC(N3CCN(Cc4ccc(C)cc4)C(=O)C3=O)CC2)cc1`: the inhibition was -0.678%.

Take `COc1ccc(CNC(=O)c2cnn(-c3ccc(C)cc3)c2-n2cccc2)cc1OC`: the inhibition is 9.63%.

Consider `CCOc1ccc(CNC(=O)C2CCN(S(=O)(=O)c3cn(C)cn3)CC2)cc1OC`, for which the inhibition was determined as 10%.

Regarding `Cc1ccc(CNC(=O)c2cc(C3CC3)nc3c2cnn3C(C)C)cc1`, the inhibition was active: 39.3%.

For the molecule `COC(=O)C1=CN(CC2CCCO2)C=C(C(=O)OC)C1c1ccccc1C(F)(F)F` (stereo unspecified), the inhibition was active: 43.4%.

On to `COc1cccc(CN2C(=O)CN(C3CCCCC3)C(=O)C2c2ccc(OC)c(OC)c2)c1` (stereo unspecified), for which the inhibition is -16.6%.

On to `COc1ccc2c(c1)c1c(c(=O)n(-c3ccccc3C)c(=O)n1CC(=O)N1CCCC1)n2C`, for which the inhibition was determined as 4.89%.

As to `COc1ccc(C2C=C(c3ccccc3)Nc3nc(NC(=O)/C=C/c4ccc(F)cc4)nn32)cc1` (stereo unspecified), the inhibition was -1.61%.

As to `CCC(C)Sc1c(C(C)C)cnc2c1c(=O)n(C)c(=O)n2C` (stereo unspecified), the inhibition was -5.93%.

As for `COc1ccc(-c2cc(C(F)(F)F)c(C#N)c(SCC(=O)Nc3ccccc3F)n2)cc1`, the inhibition came out at 1.1%.

Take `COc1ccc(NC(=O)CSc2oc(-c3cccs3)nc2S(=O)(=O)c2ccc(Br)cc2)c(OC)c1`: the inhibition was 5.26%.

Turning to `Cc1nc2ccn(Cc3cccs3)c(=O)c2cc1C(=O)NCc1ccccc1`, the inhibition was 17.3%.

As to `Cc1ccc(Nc2sc(C(=O)c3ccccc3)c(N)c2C(=O)NC(C)C)cc1`, the inhibition was -20.1%.

Turning to `CCc1nonc1NC(=O)c1oc2cc(C)c(Cl)cc2c1C`, the inhibition is -8.54%.

For the molecule `COc1ccccc1-c1cc(C(=O)NCc2ccc(F)cc2)no1`, the inhibition is active: 74.1%.

For the molecule `COc1ccc(Cn2ccc3nc(C)c(C(=O)N4CCN(c5ccccc5)CC4)cc3c2=O)cc1`, the inhibition is -3.13%.

Take `O=C(c1cn(CCOc2ccccc2F)c2ccccc12)C1CCCCC1`: the inhibition is -8.23%.

As to `COc1ccc(C(=O)c2oc3ccccc3c2NC(=O)c2ccc(F)cc2)cc1`, the inhibition was -8.57%.

On to `CCOC(=O)c1ccc(NC(=O)c2cn(-c3ccccc3)nc2-c2ccc(Br)cc2)cc1`, for which the inhibition is -1.01%.

In the case of `O=C(NC1CC(=O)N(c2cccc(F)c2)C1)c1ccc(S(=O)(=O)N2CCOCC2)cc1` (stereo unspecified), the inhibition is -0.285%.

As for `COc1ccccc1CN1COc2ccc3c(C)cc(=O)oc3c2C1`, the inhibition was -6.18%.

On to `Cc1ccc(NC(=O)Cn2c(=O)oc3ccccc32)cc1Cl`, for which the inhibition is -26.4%.

For `CCOC(=O)c1ccc(NC(=O)CSc2ccc(-c3sc(C)nc3C)nn2)cc1`, the inhibition is -2.94%.

Consider `CCn1nc(C)c(CN2CCC(C(=O)Nc3cccc(-c4cccc(F)c4)c3)CC2)c1C`, for which the inhibition was active: 37.8%.

As for `COc1ccccc1N1CCN(C(=O)c2sc3nc4n(c(=O)c3c2C)CCC4)CC1`, the inhibition was 20.3%.

For the molecule `CCOc1ccc(C(=O)c2cn(Cc3ccccc3OC)c3cc4c(cc3c2=O)OCCO4)cc1`, the inhibition is -3.5%.

For the molecule `CCC(=O)N1CCc2cc(S(=O)(=O)CCC(=O)Nc3ccc(Cl)c(C(F)(F)F)c3)ccc21`, the inhibition is 1.97%.

With `CCCCN(CC)CCNC(=O)c1cn(CCOC)c(=O)c2c1c1ccccc1n2C`, the inhibition came out at 14.4%.

With `COc1cccc(CC2(CO)CCCN(Cc3ccc(CN4CCCCC4)s3)C2)c1` (stereo unspecified), the inhibition is active: 39.6%.

With `COc1ccc(CNC(=O)C2CCN(Cc3nc(-c4ccc(OC)c(OC)c4)oc3C)CC2)cc1`, the inhibition was -5.04%.

As for `Cc1ccc(-c2cc(C(F)(F)F)n3nc(-c4ccc(Cl)cc4)cc3n2)cc1`, the inhibition is -4.08%.

`COc1cccc(OC)c1C(=O)Nc1nnc(C)s1`: the inhibition was -18.7%.

In the case of `Cc1ccc(N(CC(C)C)S(=O)(=O)c2nnc(NC(=O)c3ccco3)s2)cc1`, the inhibition was determined as 1.61%.

Turning to `O=C(COC(=O)C(Cc1c[nH]c2ccccc12)NC(=O)c1ccc(Br)cc1)c1ccc(Cl)cc1` (stereo unspecified), the inhibition was 10.4%.
